# Measured values taken from PubChem BioAssay AID686970 (National Center for Advancing Translational Sciences (NCATS), 2013).
# The whole screen tested about 360,000 compounds, of which about 6,000 (1.7%) were called active. Inconclusive results, whose numbers are uncertain, are shown with a selection of clear calls. Calls follow the shape of the dose curve; as a rule, active = well fitted cell-killing curve with a large enough effect; inconclusive = small, poorly fitted or top-dose-only effect, or effect the other way; inactive = flat fitted curve, though single readings scatter. Potencies of inconclusive entries are left out as doubtful fits.
# Assay: qHTS for induction of synthetic lethality in tumor cells producing 2HG: qHTS for the HT-1080-NT fibrosarcoma cell line;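 also: NT is the 2HG producing partner of a matched IDH1 knockdown line; nearly all actives have a fitted effect of over 55% in size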;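 as to activity, negative = less viability: 0% = DMSO-treated cells and -100% = media-only wells without cells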
# Conditions: HT-1080-NT fibrosarcoma viability, CellTiter-Glo ATP luminescence, 48 h; activity, negative = less viability: at 46.1 µM (top of the series) unless noted
# Procedure, shortened: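 Toxicity toward the 2HG-producing NT line was scored as %Activity, normalised to DMSO and no-cell wells, from CellTiter-Glo luminescence after 48 hours' treatment.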
# Potency is read from the fitted curve at half-maximal effect; tags tell the direction and shape of the fitted curve.
Compound,Potency,"activity, negative = less viability"
Cc1ccc(-c2nn(-c3cccc(F)c3)cc2CNCCc2ccncc2)o1,"inconclusive [cytotoxic, single point]",
COc1cccc(NC(=O)[C@@H]2CCCN2C(=O)C2CCN(S(=O)(=O)c3ccc(C)cc3)CC2)c1,"inconclusive [cytotoxic, full curve, poor fit]",
O=C(/C=N/O)NCCN1CCCCC1,"inconclusive [cytotoxic, single point]",
CC(C)C(=O)OC/C(O)=C(\C#N)c1nc2ccccc2[nH]1,,inactive: 11.1%
CCCCCc1c(-c2cccc(OC)c2)ncn1CCc1ccccc1OC,active: 20.6 µM,
CSc1ccc(S(=O)(=O)NCC(=O)OCC(=O)N2CCCC2=O)cc1[N+](=O)[O-],,inactive: 0.577%
COc1cc(/C=C/C(C)=NNc2ccccc2)ccc1O,"inconclusive [cytotoxic, partial curve]",
CCCCN(C)CCNC(=S)Nc1ccc2nc(N3CCN(CC)CC3)cc(C)c2c1,active: 18.4 µM,
CCO[C@H]1OC(C(=O)N2CCN(Cc3ccc4c(c3)OCO4)CC2)=C[C@@H](c2csc3ccccc23)[C@@H]1CCCO,"inconclusive [cytotoxic, single point]",
CCOc1ccc(Nc2nc3cc(S(=O)(=O)N(CC)CC)ccc3o2)cc1,"inconclusive [cytotoxic, partial curve]",
COCCCN1C(=O)C(CC(=O)NCCCN(C)C)CC(C(=O)N2CCOCC2)=C1C (stereo not drawn),"inconclusive [rising, single point]",
Cc1cc(NC(=O)c2ccc(NC(=O)C3CCCO3)cc2)ccc1Br (stereo not drawn),"inconclusive [cytotoxic, single point]",
COc1ccc(-n2nc3c(c2NC(=O)CC(C)C)CS(=O)C3)cc1 (stereo not drawn),"inconclusive [rising, single point]",
CCOc1ccc(Cl)cc1-c1cc(C(=O)NCc2cccc(C(F)(F)F)c2)[nH]n1,"inconclusive [cytotoxic, single point]",
CCOC(=O)CCSc1nnc(-c2cccnc2)n1-c1ccccc1OC,,inactive: 12.8%
Cc1cc(C)c(S(=O)(=O)c2ccccc2)c(N2CCOCC2)n1,,inactive: -15.9%
CN(C)c1ccc(CNC(=O)C2Cc3c(-c4ccccc4Oc4ccccc4)ccnc3O2)cc1 (stereo not drawn),"inconclusive [cytotoxic, single point]",
CCCc1ccc(OC(=O)c2ccc(O)cc2Cl)cc1,"inconclusive [cytotoxic, single point]",
COc1ccc(OC)c(/C=N/Nc2nncn2/N=C/c2cc(OC)ccc2OC)c1,"inconclusive [cytotoxic, single point]",
O=C(CCC(=O)Nc1ccccc1Cl)NNC(=O)C1CCCCC1,,inactive: 3.41%
C=CC[C@@H](CC(=O)N[C@@H](CO)Cc1ccccc1)C(=O)NC[C@H](OC(=O)[C@@H](CC=C)Cc1ccc(F)cc1)c1ccccc1,"inconclusive [cytotoxic, single point]",
CCOc1ccc(C(CN2CCOCC2)C(C)=O)cc1OC (stereo not drawn),active: 20.6 µM,

Compound,Potency,"activity, negative = less viability"
CCOc1cc2ccccc2cc1C(=O)Nc1ccccn1,,inconclusive: -16.8% [cytotoxic]
CCN(C(=O)COC(=O)c1cc(Cl)ccc1OC)c1c(N)n(Cc2ccccc2)c(=O)[nH]c1=O,,inactive: -2.07%
O=C1c2ccccc2NC(c2cn[nH]c2-c2ccc(Cl)cc2)N1O (stereo not drawn),"inconclusive [cytotoxic, single point]",
Cc1c(C(=O)NCc2ccco2)sc2nc(-c3ccccc3)cn12,"inconclusive [cytotoxic, single point]",
CCOC(=O)c1c(NC(=O)c2cccs2)sc2c1CCN(C(=O)OCC)C2,"inconclusive [rising, partial curve]",
CCOc1ccc(CCN2C(=S)N([C@@H](CC(C)C)CN3CCC[C@@H]3CN3C(=S)NC[C@@H]3Cc3ccc(O)cc3)C[C@@H]2Cc2ccc(O)cc2)cc1,"inconclusive [cytotoxic, single point]",
COc1ccc(NS(=O)(=O)c2cc(NC(=O)c3nc4nc(C)cc(C)n4n3)ccc2C)cc1,"inconclusive [cytotoxic, single point]",
CC(C)CC(N)c1csc(Nc2ccc(C(=O)NCCO)cc2)n1 (stereo not drawn),"inconclusive [rising, single point]",
CCC(=O)N1N=C(c2ccc(NS(C)(=O)=O)cc2)CC1c1ccc(N(C)C)cc1 (stereo not drawn),,inactive: -2.52%
COc1cc(-c2nc3ccc(C)cn3c2NCc2ccccc2)ccc1SC1CCCCC1,"inconclusive [cytotoxic, single point]",
CCCCNC(=O)c1nc(C2CCN(S(=O)(=O)c3ccc(Cl)cc3)CC2)oc1-c1ccccc1,,inactive: 14%
COC(=O)c1c(NC(=O)c2cccc([N+](=O)[O-])c2)sc(C(N)=O)c1C,,inconclusive: -22% [cytotoxic]
CN1CCN(c2nc3ccccc3nc2C(C#N)S(=O)(=O)c2ccccc2)CC1 (stereo not drawn),,inactive: -0.554%
O=Cc1ccccc1OCCOc1ccccc1C=O,active: 10 µM,
S=C(NCc1ccccc1)NCC1COc2ccccc2O1 (stereo not drawn),"inconclusive [cytotoxic, single point]",
S=C(Nc1ccccc1)Nc1cc(Cl)ccc1Oc1ccccc1,,inactive: -13.3%
O=C1[C@@H]2Cc3c([nH]c4ccccc34)C(c3ccc([N+](=O)[O-])cc3)N2C(=O)CN1C1CC1 (stereo partly drawn),"inconclusive [cytotoxic, partial curve]",
CN(C)N1C(N)=C(C#N)C(c2ccccc2F)C2=C1CC(C)(C)CC2=O (stereo not drawn),,inactive: 0.909%
COc1ccc(NC(=O)c2ccc(CN3CCN(c4ccccc4)CC3)cc2)cc1OC,"inconclusive [cytotoxic, partial curve]",
COC(=O)c1sccc1NC(=O)c1c(F)c(F)c(F)c(F)c1F,active: 18.4 µM,
O=C(Nc1ccc(S(=O)(=O)Nc2nccs2)cc1)c1cc(-c2ccccc2Cl)nc2ccccc12,"inconclusive [cytotoxic, single point]",
